# Source: the supplement of paper PMC8728848
# Some of the results follow.
# B1: LFA (Limax flavus) (protein)
# chain: MSVLFLAASFLLLASFELVAAQGCPRQDPGDWIVIQRRLNADVNFYRGWADYKHGFGDLRCNFWLGNEKIHQLTSHGRYKLRVEFTFNNKSYFAEYSTFKILGEADKYKLQVGGYSGNAGDALTFHNGMAFSTNDRDNDADSIDCAKVYHGAWWYKTCHESNLNGKWGSKKYGEGLNWKAKTTFTATATSSLLKIKALK
# Legend:
# Assay in all cases: glycan array binding signal (z-score within array); higher = stronger binding
# Details in all cases: glycan notation: IUPAC condensed, linker removed
# [1] = target: Gal3S(b1-3)[Fuc(a1-4)]GlcNAc
# How it was run: (§1)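 Glycan array data were curated from 3228 arrays in the Consortium for Functional Glycomics database and kept only where the protein sequence was available. Glycan names were converted to IUPAC-condensed notation, and columns mapping to the same glycan were averaged. The binding signal is a within-array Z-score, averaged across arrays of the same protein sequence at different concentrations or buffers and across linkers. Negative Z-scores can be read as non-binding.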
# [2] = target: Gal3S(b1-4)Glc
# How it was run: as §1
# [3] = target: Gal3S(b1-4)Glc6S
# How it was run: as §1
# [4] = target: Gal3S(b1-4)GlcNAc
# How it was run: as §1
# [5] = target: Gal3S(b1-4)[Fuc(a1-3)]Glc6S
# How it was run: as §1
# [6] = target: Gal3S(b1-4)[Fuc(a1-3)]GlcNAc
# How it was run: as §1
# [7] = target: Gal3S(b1-4)[Fuc(a1-3)]GlcNAc6S
# How it was run: as §1
# [8] = target: Gal3S4S(b1-4)GlcNAc
# How it was run: as §1
# [9] = target: Gal3S6S(b1-4)GlcNAc
# How it was run: as §1
# [10] = target: Gal3S6S(b1-4)GlcNAc6S
# How it was run: as §1
# [11] = target: Gal4S(b1-4)GlcNAc
# How it was run: as §1
# [12] = target: Gal4S6S(b1-4)GlcNAc
# How it was run: as §1
# [13] = target: Gal6P(b1-4)GlcNAc
# How it was run: as §1
# [14] = target: Gal6S(b1-3)GlcNAc
# How it was run: as §1
# [15] = target: Gal6S(b1-3)GlcNAc6S
# How it was run: as §1
# [16] = target: Gal6S(b1-4)Glc
# How it was run: as §1
# [17] = target: Gal6S(b1-4)Glc6S
# How it was run: as §1
# [18] = target: Gal6S(b1-4)GlcNAc
# How it was run: as §1
# [19] = target: Gal6S(b1-4)GlcNAc6S
# How it was run: as §1
# [20] = target: GalNAc(a1-3)Gal
# How it was run: as §1
# [21] = target: GalNAc(a1-3)GalNAc
# How it was run: as §1
# [22] = target: GalNAc(a1-3)GalNAc(b1-3)Gal(a1-4)Gal(b1-4)Glc
# How it was run: as §1
# [23] = target: GalNAc(a1-3)GalNAc(b1-3)Gal(a1-4)Gal(b1-4)GlcNAc
# How it was run: as §1
# [24] = target: GalNAc(b1-3)Gal
# How it was run: as §1
# [25] = target: GalNAc(b1-3)Gal(a1-4)Gal(b1-4)GlcNAc
# How it was run: as §1
# [26] = target: GalNAc(b1-3)Gal(a1-4)Gal(b1-4)GlcNAc(b1-3)Gal(b1-4)Glc
# How it was run: as §1
# [27] = target: GalNAc(b1-3)Gal(a1-6)Gal(b1-4)Glc
# How it was run: as §1
# [28] = target: GalNAc(b1-3)GalNAc
# How it was run: as §1
# [29] = target: GalNAc(b1-3)GlcNAc
# How it was run: as §1
# [30] = target: GalNAc(b1-4)Gal(b1-4)Glc
# How it was run: as §1
# [31] = target: GalNAc(b1-4)GlcNAc
# How it was run: as §1
# [32] = target: GalNAc(b1-4)GlcNAc(b1-2)Man
# How it was run: as §1
# [33] = target: GalNAc(b1-4)GlcNAc(b1-2)Man(a1-3)[GalNAc(b1-4)GlcNAc(b1-2)Man(a1-6)]Man(b1-4)GlcNAc(b1-4)GlcNAc
# How it was run: as §1
# [34] = target: GalNAc(b1-4)GlcNAc(b1-3)GalNAc(b1-4)GlcNAc
# How it was run: as §1
# [35] = target: GalNAc(b1-4)GlcNAc6S
# How it was run: as §1
# [36] = target: GalNAc(b1-6)GalNAc
# How it was run: as §1
# [37] = target: GalNAc3S(b1-4)GlcNAc
# How it was run: as §1
# [38] = target: GalNAc3S(b1-4)GlcNAc3S
# How it was run: as §1
# [39] = target: GalNAc3S(b1-4)[Fuc(a1-3)]GlcNAc
# How it was run: as §1
# [40] = target: GalNAc4S6S(b1-4)GlcNAc
# How it was run: as §1
# [41] = target: GalNAc6S(b1-4)GlcNAc
# How it was run: as §1
# [42] = target: Glc(a1-4)Glc
# How it was run: as §1
# [43] = target: Glc(a1-4)Glc(a1-4)Glc(a1-4)Glc
# How it was run: as §1
# [44] = target: Glc(a1-6)Glc(a1-6)Glc
# How it was run: as §1
# [45] = target: Glc(a1-6)Glc(a1-6)Glc(a1-6)Glc
# How it was run: as §1
binder,measurement,setting,value
B1,glycan array binding signal (z-score),[1],-0.306
same,glycan array binding signal (z-score),[2],-0.271
same,glycan array binding signal (z-score),[3],-0.193
same,glycan array binding signal (z-score),[4],-0.26
same,glycan array binding signal (z-score),[5],0.119
same,glycan array binding signal (z-score),[6],-0.335
same,glycan array binding signal (z-score),[7],-0.21
same,glycan array binding signal (z-score),[8],-0.218
same,glycan array binding signal (z-score),[9],-0.305
same,glycan array binding signal (z-score),[10],-0.074
same,glycan array binding signal (z-score),[11],-0.194
same,glycan array binding signal (z-score),[12],-0.282
same,glycan array binding signal (z-score),[13],0.111
same,glycan array binding signal (z-score),[14],-0.155
same,glycan array binding signal (z-score),[15],-0.359
same,glycan array binding signal (z-score),[16],0.135
same,glycan array binding signal (z-score),[17],-0.248
same,glycan array binding signal (z-score),[18],-0.16
same,glycan array binding signal (z-score),[19],-0.066
same,glycan array binding signal (z-score),[20],2.29
same,glycan array binding signal (z-score),[21],3.66
same,glycan array binding signal (z-score),[22],13.1
same,glycan array binding signal (z-score),[23],0.469
same,glycan array binding signal (z-score),[24],-0.195
same,glycan array binding signal (z-score),[25],-0.394
same,glycan array binding signal (z-score),[26],-0.37
same,glycan array binding signal (z-score),[27],-0.275
same,glycan array binding signal (z-score),[28],0.02
same,glycan array binding signal (z-score),[29],-0.376
same,glycan array binding signal (z-score),[30],-0.247
same,glycan array binding signal (z-score),[31],-0.287
same,glycan array binding signal (z-score),[32],-0.249
same,glycan array binding signal (z-score),[33],0.256
same,glycan array binding signal (z-score),[34],-0.352
same,glycan array binding signal (z-score),[35],-0.314
same,glycan array binding signal (z-score),[36],-0.295
same,glycan array binding signal (z-score),[37],-0.277
same,glycan array binding signal (z-score),[38],0.12
same,glycan array binding signal (z-score),[39],-0.245
same,glycan array binding signal (z-score),[40],0.135
same,glycan array binding signal (z-score),[41],-0.305
same,glycan array binding signal (z-score),[42],-0.279
same,glycan array binding signal (z-score),[43],-0.245
same,glycan array binding signal (z-score),[44],-0.243
same,glycan array binding signal (z-score),[45],-0.194
